# Measured values: publication PMC4336329 (PLoS ONE, 2015)
# About 2,200 (0.71%) of roughly 310,000 compounds showed an effect of 50% or more. Effects have a minus sign here. Some of the results follow.
# Biological target: human ether-à-go-go-related gene (hERG) potassium channel (human, UniProt Q12809)
# Experiment: primary screen, population patch clamp on CHO cells stably expressing hERG
# human ether-à-go-go-related gene (hERG) potassium channel, sequence (Q12809 whole entry, looked up): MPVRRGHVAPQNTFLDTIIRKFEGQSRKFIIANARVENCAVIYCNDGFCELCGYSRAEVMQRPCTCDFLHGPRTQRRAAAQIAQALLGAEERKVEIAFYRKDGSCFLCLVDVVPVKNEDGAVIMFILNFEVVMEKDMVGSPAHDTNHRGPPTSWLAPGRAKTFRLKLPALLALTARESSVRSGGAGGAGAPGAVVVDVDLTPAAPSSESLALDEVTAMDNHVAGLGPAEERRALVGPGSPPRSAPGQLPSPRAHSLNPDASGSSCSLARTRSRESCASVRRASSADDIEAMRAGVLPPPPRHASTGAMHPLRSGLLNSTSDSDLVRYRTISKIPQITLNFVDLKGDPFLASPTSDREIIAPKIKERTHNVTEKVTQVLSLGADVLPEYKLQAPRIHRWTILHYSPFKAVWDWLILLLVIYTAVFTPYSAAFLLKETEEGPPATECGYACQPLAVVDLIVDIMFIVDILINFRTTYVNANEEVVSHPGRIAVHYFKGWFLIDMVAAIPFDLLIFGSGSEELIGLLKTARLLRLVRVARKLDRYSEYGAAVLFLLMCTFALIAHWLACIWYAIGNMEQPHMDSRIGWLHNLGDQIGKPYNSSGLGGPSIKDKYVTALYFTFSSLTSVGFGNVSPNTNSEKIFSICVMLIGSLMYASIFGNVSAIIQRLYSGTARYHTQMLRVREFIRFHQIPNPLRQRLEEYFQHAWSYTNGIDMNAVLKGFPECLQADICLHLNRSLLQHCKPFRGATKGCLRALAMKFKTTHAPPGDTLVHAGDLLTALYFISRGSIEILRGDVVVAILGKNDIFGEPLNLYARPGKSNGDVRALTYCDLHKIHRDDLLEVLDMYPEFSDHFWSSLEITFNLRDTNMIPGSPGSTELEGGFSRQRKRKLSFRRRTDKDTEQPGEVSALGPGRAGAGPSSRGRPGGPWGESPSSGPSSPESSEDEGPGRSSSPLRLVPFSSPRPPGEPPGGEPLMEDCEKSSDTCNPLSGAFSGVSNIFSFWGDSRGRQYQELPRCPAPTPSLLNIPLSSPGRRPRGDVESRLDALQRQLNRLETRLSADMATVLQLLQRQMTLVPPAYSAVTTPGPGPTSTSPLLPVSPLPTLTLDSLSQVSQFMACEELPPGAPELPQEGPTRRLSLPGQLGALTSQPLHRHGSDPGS
row,Compound,"hERG current change (%, negative = inhibition) at 1uM [%]"
1,O=C(CSc1ncccc1-c1nc2ccccc2[nH]1)N1CCc2ccccc21,-3.17
2,COCCN(CC(=O)Nc1cccc(C)c1C)C(=O)Cn1c(=O)cnc2ccccc21,11.3
3,C=CCn1c(=NC(=O)c2ccccc2[N+](=O)[O-])sc2cc(S(C)(=O)=O)ccc21,7.35
4,CCOC(=O)N1CCN(C(=O)c2cccc(NS(=O)(=O)c3ccc(F)c(F)c3)c2)CC1,10.6
5,C/C(CC(=O)Nc1ccc(F)cc1F)=N\NC(=O)C(=O)N1CCCCC1,24.8
6,NC(=O)C1CC(=O)N(c2ccc(OCC(=O)Nc3cccc(C(F)(F)F)c3)cc2)C1 (stereo not shown),9.25
7,CCCn1nnnc1SCC(=O)NNC(=O)c1ccco1,10.8
8,CN(C)c1nc(N)nc(CSc2nnnn2C)n1,6.78
9,CCN1CCN(CCCNC(=O)C2c3ccccc3C(=O)N(C)C2c2ccc(OC)cc2)CC1 (stereo not shown),18.4
10,COc1cccc(CN2CCC(N(CCc3ccccc3)Cc3ccccc3)CC2)c1OC.O=C(O)C(=O)O,0.877
11,Cc1cccc(N(C(=O)CCC(=O)Nc2ccccn2)C(C(=O)NC(C)C)c2ccc(F)cc2)c1 (stereo not shown),19.3
12,O=C(/C=C/c1ccccc1)NCCS(=O)(=O)N1CCN(c2ccccc2)CC1,6.84
13,COc1ccc2cc(C(=O)C3CCCN(C(=O)c4snnc4C)C3)ccc2c1 (stereo not shown),3.03
14,O=C(c1csc2c1CCCC2)N1CCN(c2ccccc2)CC1,4.39
15,O=C(Cn1cnc2ccccc21)N/N=C/c1ccco1,13.4
16,COCCn1cc(-c2csc(N)n2)c2ccccc21,12.2
17,CCC(c1nnnn1C1CCCC1)N(Cc1cccs1)Cc1cc2cccc(C)c2[nH]c1=O (stereo not shown),11.2
18,CCc1ccc(NC(=O)c2cc(Br)ccc2Br)cc1,1.78
19,O=C(CSc1nc(-c2ccco2)cc(C(F)(F)F)n1)N1CCSCC1,-4.71
20,O=C(NCCCN1CCOCC1)C(=O)N/N=C/c1ccc(F)cc1,13
21,Cc1ccc(C)c(S(=O)(=O)N2CCN(CC(=O)NC(=O)NCc3ccccc3)CC2)c1,1.37
22,Cc1ccc(OCCN2C(=O)c3ccccc3C2=O)c(C)c1,-2.42

row,Compound,"hERG current change (%, negative = inhibition) at 1uM [%]"
1,CC(=O)N[C@@H](C)C(=O)N1CCC(n2nccc2NC(=O)CCCc2ccccc2)CC1,15.2
2,CSCCC(NC(=O)C1CCC(C)CC1)C(=O)N1CCN(c2ccccn2)CC1 (stereo not shown),-34.4
3,CC(C)C1Oc2ccccc2N(CC(=O)N(Cc2ccccn2)C2CC2)C1=O (stereo not shown),5.36
4,O=C(Nn1c(C2CCCCC2)nc2ccccc2c1=O)c1ccc([N+](=O)[O-])cc1,5.74
5,O=C(O)c1cc([N+](=O)[O-])ccc1NCc1cccnc1,11
6,Cc1ccc(-c2nc3c(Cl)cc(Cl)cc3c(=O)n2O)cc1,11.9
7,COc1cc(N2CCCC2)c(OC)cc1/C=C1/NC(=S)NC1=O,4.37
8,O=C(CSc1nc(-c2cccs2)cc(C(F)(F)F)n1)NCCCN1CCOCC1,0.986
9,CC1Cc2ccccc2N1C(=O)COC(=O)c1ccc(Cl)nc1 (stereo not shown),8.17
10,Cc1nc(S/C(C(=O)O)=C2/C(=O)Nc3ccccc32)n[nH]1,-1.95
11,CCOc1ccc(-c2noc(CCCC(=O)NC3CCCCC3)n2)cc1OC,-7.49
12,O=C(Nc1ccc(O)cc1)c1ccc2c(c1)C(=O)N(Cc1cccnc1)C2=O,15.7
13,CCC(CC)NC(=O)c1nn(Cc2ccccc2)c(=O)c2ccccc12,13.1
14,O=C(c1cc2ccccc2oc1=O)N1CCN(c2ccccn2)CC1,9.08
15,COCCCNC(=S)Nc1cccc(SC)c1,14.3
16,COc1ccc(CC2(CCc3ccccn3)C(=O)NC(=O)N(c3ccccc3C)C2=O)cc1OC (stereo not shown),9.49
17,COc1ccc(-c2c(C)n([O-])c3c([n+]2=O)CCCCC3)cc1,2.36
18,Cc1c(Cl)cccc1NC(=O)CNc1cccc(C(F)(F)F)c1,2.51
19,COc1ccc(CCNC(=O)c2nn(C)c3c2CS(=O)(=O)c2ccccc2-3)c(OC)c1,10.2
20,Cc1nn(-c2ccc(Cl)cc2Cl)c(=O)c2ccccc12,6.47
21,CCOC(=O)N1CCN(C(=O)CCN2C(=O)/C(=C\c3cccc(OC)c3)SC2=S)CC1,7.62
22,Cc1ccc(C(=O)CSc2nnc(-c3ccco3)o2)o1,5.44

row,Compound,"hERG current change (%, negative = inhibition) at 1uM [%]"
1,C/C(=C(\C#N)C(=O)NCCN1CCOCC1)N(C)C,-8.79
2,COc1ccc2c(c1)c(C(C)=O)c(C)n2CCc1ccc(OC)c(OC)c1,5.08
3,COc1ccc(CCNC(=O)c2cc(=O)c3cc(C)ccc3o2)cc1OC,8.92
4,COC(=O)Cc1ccc(OC(=O)c2cccc(S(=O)(=O)N3CCN(C)CC3)c2)cc1,4.82
5,O=C(O)c1cccc(S(=O)(=O)Nc2cccc(S(=O)(=O)N3CCCC3)c2)c1,11.2
6,CN(C(=O)c1ccc2c(c1)OCO2)C1(C)CCS(=O)(=O)C1 (stereo not shown),7.11
7,Cc1cccc(Oc2sc(C(=O)c3ccccc3)c(N)c2C#N)c1C,12.5
8,COc1ccc(NC(=S)NC(NC(=O)c2cccc3ccccc23)C(Cl)(Cl)Cl)c([N+](=O)[O-])c1 (stereo not shown),5.26
9,Nc1ccc(C(=O)OCC(=O)N2c3ccccc3Sc3ccccc32)cc1[N+](=O)[O-],17.4
10,O=C(Nc1ccc2cn[nH]c2c1)c1ccc(Cl)c(S(=O)(=O)N2CCOCC2)c1,16
11,Cc1ccc(-n2nc(C)c(=O)c(-c3ccccc3)c2NC(=O)c2cccs2)cc1,10
12,O=C(CCSCCc1ccccn1)Nc1nccs1,16.9
13,CCOc1ccc2ncc(S(=O)(=O)c3ccccc3)c(N3CCN(c4ccccc4)CC3)c2c1,0.238
14,CCCCn1c(N)c(N(CC(C)C)C(=O)c2ccc3c(c2)NC(=O)C(C)S3)c(=O)[nH]c1=O (stereo not shown),-0.25
15,O=C(c1cc(-n2cnnc2)ccc1Cl)N1CCN(c2nc(-c3ccccc3)cs2)CC1,-3.41
16,CN1CCN(C(=O)c2cc(Cl)ccc2Cl)CC1,10.1
17,CCNc1c(NS(=O)(=O)c2ccc(F)c(Cl)c2)c(=O)oc2ccccc12,-8.66
18,COc1cc(CSc2nnnn2-c2ccc(C)cc2)cc(OC)c1OC,8.75
19,CCCn1nc(C(=O)OCc2nc(N)nc(Nc3ccccc3C)n2)c2ccccc2c1=O,-0.705
20,COc1cccc(NC(=S)N(CCCN2CCOCC2)C(C)c2cc3cccc(OC)c3o2)c1 (stereo not shown),6.01
21,C/C(=N\n1c(C)nc2ccccc2c1=O)c1ccc(C)o1,12.6
22,CC1(C)c2[nH]c3ccccc3c2C[C@H]2C(=O)N(Cc3cccc(F)c3)C(=O)N21,14.3

row,Compound,"hERG current change (%, negative = inhibition) at 1uM [%]"
1,O=C(c1cc(C(=O)N2CCOCC2)c2nc3ccccc3n2c1)c1ccccc1O,1.89
2,Cc1nn(C)cc1CNC(=O)C1CCC(=O)N(Cc2cccc(C(F)(F)F)c2)C1 (stereo not shown),19.9
3,CC(=O)N1c2ccc(S(=O)(=O)NCC3CCC(C(=O)NCc4ccccc4)CC3)cc2CC1C (stereo not shown),17
4,O=c1c2ccccc2nc(SCCN2CCOCC2)n1CCc1ccccc1,8.69
5,O=S(=O)(NCc1cccnc1)c1ccc(Cl)s1,5.89
6,N#Cc1ccsc1NC(=O)c1cccc([N+](=O)[O-])c1,5.73
7,O=C(NCCOc1ccccc1)c1cc(S(=O)(=O)N2CCOCC2)ccc1F,14.7
8,N/C(=N\OC(=O)CC1CCCCC1)c1cccc([N+](=O)[O-])c1,13.7
9,O=C(Nc1nc(-c2cc(Cl)sc2Cl)cs1)c1ccc(Br)s1,3.38
10,COc1cc2c(cc1OC)CN(C(=S)Nc1ccc(C)cc1C)CC2,4.85
11,COC(=O)c1ccccc1S(=O)(=O)N1CCn2cccc2C1C (stereo not shown),0.029
12,Cc1ccc(NC(=S)NC(=O)CC2CC(C)(C)OC2=O)cc1 (stereo not shown),8.78
13,COc1ccc(C)cc1S(=O)(=O)N1CCCC(C(=O)N2CCN(c3ccccc3)CC2)C1 (stereo not shown),3.96
14,CCc1nn(CCCC(=O)Nc2ccc(C)cc2C)c(=O)c2cc3occc3n12,7.33
15,O=C(NCCOc1cccc(Oc2ccccc2)c1)c1cc(-n2cnnc2)ccc1Cl,1.46
16,CC(C)NC(=O)/C(C#N)=C/c1cccc(NC(=O)c2ccccc2Cl)c1,4.65
17,CC1CCC(NC(=O)c2cc3c(s2)CCCC3)CC1 (stereo not shown),16.4
18,O=C(C1CCN(c2ncnc3c2sc2cccc(F)c23)CC1)N1CCCC1,6.94
19,CCn1c(SCC(=O)Nc2oc(-c3ccccc3)c(-c3ccccc3)c2C#N)nnc1-c1cc(OC)cc(OC)c1,-4.42
